± gives the standard deviation of the averaged measurements. This is one part of the list.
The sequences below were run on PfAP2-G AP2 domain (GST-tagged) (assay: gcPBM binding intensity (ln(normalized median fluorescence intensity)); higher = stronger DNA binding).
How it was run: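 An Agilent 4 × 180k array of primer-extended double-stranded 36-bp intergenic genomic probes, with negative controls, was incubated for 1 h with GST-tagged P. falciparum DNA-binding domains expressed in E. coli. Alexa488 anti-GST antibody detected bound protein, scanned at 488 nm. Binding intensity is the highest Masliner-normalised natural-log median intensity across replicate spots of either probe orientation.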

| Sequence | gcPBM binding intensity (ln) |
| --- | --- |
| TTTTATATATATATATATATATATATATATGTATAT [CACACA_negctrl_site173] | 9.57 ± 0.23 |
| AAATGAAAGAACAGCACACATATATATTATATATAA [CACACA_site2002] | 9.885 ± 0.078 |
| TTTTTTATGATTAACACACACACAAAAAAAAAAAAA [CACACA_site4130] | 9.99 ± 0.43 |
| TCATGTAACCATTCATGTACTCAAAAAAAAAAAAAA [XGTACX_site1027] | 11.3 ± 1.1 |
| TCTGTAAATATGTATACACACATATCTGATCAATAT [CACACA_site5743] | 10.2 ± 0.11 |
| AACATATTTTTTCTTAAACACACACCGATATATATA [CACACA_site8919] | 10.2 ± 0.29 |
| AATATATATTTCTAAGATAAAACCCAAGGATAAAAA [CACACA_negctrl_site735] | 10.1 ± 0.11 |
| GCCCCCAAATTATGTGTGCACTTTATATTCCTGAGA [GTGCAC_site9474] | 11.1 ± 0.77 |
| ATTGTGTGAACAAAATGTACATTTTCTCTACATTAA [XGTACX_site1333] | 10.9 ± 0.52 |
| TGGCATATATATAAATGTACTTTCTTTCTATCTGTT [XGTACX_site8483] | 10.9 ± 0.54 |
| TAATAAAGTATTTTGCGTACTTATTTTATTCTTCTA [XGTACX_site2095] | 11.4 ± 0.88 |
| TATTTTATAATAGGCACACATATAAAAATATATATA [CACACA_site4127] | 10 ± 0.19 |
| TAATTTTTTTTAAATACACACTGAAATGTGAATTTT [CACACA_site4476] | 9.755 ± 0.021 |
| TTATATATATGTAATTGTACTTTTAATTTTTTTTTA [XGTACX_site4357] | 11.2 ± 0.62 |
| ATATATATATATAATGCACACATTATGAATTATGTA [CACACA_site3384] | 9.9 ± 0.42 |
| AAACAAAATGGTAACACACACATATATATATATATA [CACACA_site1939] | 10.2 ± 0.27 |
| GTGTGATCTTTTGAAAGTACATTTTTTTTTTTTTTT [XGTACX_site6311] | 11.2 ± 0.62 |
| ATAAAAATAAAAGACGCATGTTCTTAAAATAAGAAC [TGCATGCA_site189] | 9.91 ± 0.014 |
| TGAACACCCAAATACACACACTCAAAAAAAAAAAAG [CACACA_site5467] | 10.3 ± 0.4 |
| ACAAGAATACACCACGCACACACACTAGAGAAAAAA [CACACA_site9276] | 10.5 ± 0.46 |
| AGGTCATACATAAAATGTACATATATATAAATATAT [XGTACX_site7147] | 10.9 ± 0.54 |
| AATTGTTTGTTTGGGTGTACATGGTTCTATATAAAT [XGTACX_site7940] | 11.4 ± 0.6 |

| Sequence | gcPBM binding intensity (ln) |
| --- | --- |
| TAAAGGAGCCTATGAACACACACATGTACTTATATT [CACACA_site9351] | 11.3 ± 0.76 |
| ATTTTTTCTTTTTTTTTTCCGTTTTTTTGGACATTT [CACACA_negctrl_site1174] | 10.1 ± 0.45 |
| AATAAAATATAAACATTATATATATATATATATATA [GTGCAC_negctrl_site58] | 10.2 ± 0.99 |
| AACAAGGTATTAGGGTGTACTATATATATTTATATT [XGTACX_site7776] | 11.2 ± 0.69 |
| ATAAAAAATAAATAAGGTACAGAACATTTATACATT [XGTACX_site1783] | 11 ± 0.62 |
| AAATTAAACAATAAATGTACATATATATTTGTATAT [XGTACX_site1092] | 11.2 ± 0.42 |
| AAAACCTAAAAGTCTTAAATTTTAAATATACCTACA [GTGCAC_negctrl_site492] | 9.78 ± 0.2 |
| CTTTTATTGCTCTATATGCACACCTTAATTCTTCAT [CACACA_site2195] | 10.21 ± 0.021 |
| GCAAAATTTCCTAAGGTGCTTTTATTTTACACCGTT [GTGCAC_site9923] | 9.97 ± 0.042 |
| AATGGGTTAGCACATACACACCAATATATTATAGAT [CACACA_site7444] | 9.99 ± 0.014 |
| TTTATTACCATATTTTGTACACACATCTTTATCTCA [XGTACX_site6842] | 11.1 ± 0.55 |
| TGGAAAATTATTAACACACACATATAAATATATATA [CACACA_site46] | 9.78 ± 0.13 |
| TTCTTACATAAAATATCACACACATAAAAAAACAAT [CACACA_site8576] | 10.09 ± 0.014 |
| GTAATAAGAATTATAGTGCAATGTAATACATTTATA | 9.79 ± 0.099 |
| ACTCTATACATCTAATGTACATGGAAAAAAAAATTC [XGTACX_site733] | 11 ± 0.59 |
| ATTAAAATGGTATGTGCGCACATAATATATATATGT [GTGCAC_site9572] | 10.7 ± 0.35 |
| ACATTGACATGTCGAAGTACTCAAGAAGCATACAAT [XGTACX_site3948] | 11.2 ± 0.72 |
| ATATAAATGATATGTACACACATTTATATTTATAAA [CACACA_site7600] | 11.5 ± 0.86 |
| TTTCTTTGAATAAATACACACGAGAAATGAAAGTAG [CACACA_site8490] | 10.4 ± 0.33 |
| TAATTTGAACGGTACAGTACTCTTTTTCTTTTTCAT [XGTACX_site5534] | 11.2 ± 0.57 |
| ATATATTTTTTCAATTGTACGTTTTAATAATATTTA [XGTACX_site2130] | 11.3 ± 0.81 |
| AATACAACATAATGAAGTACTGTATTTTATATTACT [XGTACX_site4885] | 10.8 ± 0.47 |

| Sequence | gcPBM binding intensity (ln) |
| --- | --- |
| CTTGGGAAGTATTCAGTGCAAAATATAAGCAGGTCA [GTGCAC_site9758] | 10.08 ± 0.085 |
| TCGTGGGAAAATATTACACACATTTACTATAGTATC [CACACA_site5836] | 10 ± 0.071 |
| TATTACAAATAATACCGTACACAAATGTTTTTTTAT [XGTACX_site7977] | 11 ± 0.61 |
| AAAAGAAATAAGGATACACACTATTGATAAAAGTAG [CACACA_site4309] | 10.28 ± 0.092 |
| TATATTATCAAAATGGTGCAATAATTTCTATATTAT [GTGCAC_site9772] | 9.93 ± 0.14 |
| ATATATATATTGAAAAGTACATATATATATATATTA [XGTACX_site1560] | 11.2 ± 0.68 |
| ACCGGTGGAACGTTTTGTACATATATAATAATATAT [XGTACX_site2143] | 11.1 ± 0.79 |
| TGGATAATCAAAAATTGTACAAGTGTTGTTATTGGT [XGTACX_site8010] | 11 ± 0.56 |
| GAACCTTTAAAATACACACCCAAATCCTTTGAAATA [CACACA_site3630] | 10.1 ± 0.085 |
| ATATTTTACAAATGCACACATAATTTTTTTTTTTTT [CACACA_site2763] | 9.825 ± 0.035 |
| GGTTAAAAAAAGCATACACACTATCCTCTTTGCTCT [CACACA_site7246] | 9.77 ± 0.15 |
| CTTTTTTATTTTTCAACACACATAATAAATTTCTAT [CACACA_site1037] | 9.96 ± 0.071 |
| TACATAAATACATACATACACACATATATATATATA [CACACA_site2105] | 10.2 ± 0.33 |
| TTTTTTTTTATATATACACACAATAAATAAATATAA [CACACA_site2954] | 10.1 ± 0.3 |
| TTTATACAAAAGAACAGTACAATAAAGGATTTATGA [XGTACX_site811] | 10.7 ± 0.33 |
| AGCAGACACCAACACACACACATATATATATATATA [CACACA_site337] | 10.2 ± 0.2 |
| TATATATTAATCAAAGTGCAATAATAAAATAAAAGT [GTGCAC_site9490] | 10.19 ± 0.085 |
| CTCTAATTAATATTTGTACACACATATTTAACCTAC [CACACA_site9043] | 11.4 ± 0.72 |
| TAACTTTATTTTCCTGTACACACATTTGACATATTA [CACACA_site9116] | 11.5 ± 0.81 |
| TCAAATTACGTAAGAACATGCGATATAAGAAATACG [TGCATGCA_site691] | 10.3 ± 0.11 |
| AATTATTTTAAATATTGTACTATTACAGAATGGTGT [XGTACX_site5693] | 11 ± 0.56 |
| ATATAAAAAATATAAGGTACACATATATGTAGATAT [XGTACX_site6792] | 11.2 ± 0.77 |

| Sequence | gcPBM binding intensity (ln) |
| --- | --- |
| TAAATAAAATACAAATGTACATAAATAATAAATATA [XGTACX_site1813] | 11.1 ± 0.47 |
| CATATTCCCCCCCACACACACACACGCATACATACC [CACACA_site7148] | 11.8 ± 0.6 |
| TCTTTTTCATCTTTCAACAAAAAATAATATATGTGT [CACACA_negctrl_site866] | 10.1 ± 0.18 |
| TAAATTTGTGTTATTAAAAAAATGGTTTAAAAATGT [XGTACX_negctrl_site352] | 10.045 ± 0.007 |
| TTTCTTACAAAAGCTAGAGTTTTTTTTTTTTTTTTT [XGTACX_negctrl_site341] | 10.19 ± 0.049 |
| TGTTTTTATAAAATAAATAAATATATATATATATAT [CACACA_negctrl_site502] | 10 ± 0.69 |
| AAATATACAATATTCACACAAAAAAATACATTACAA [CACACA_site5004] | 9.98 ± 0.16 |
| ATATATTTATATTGTACACACATTTATGCATATATA [CACACA_site7502] | 11.4 ± 0.77 |
| ATCCTTAATATGAACACACAAATATATTGCACATAT [CACACA_site6230] | 10.19 ± 0.085 |
| AGAATAAATATGCACACATGCATATATTTTTACACT [TGCATGCA_site893] | 9.95 ± 0.014 |
| TTAGTCCATATTTTTGCACACCATTTTTTTTTTTTT [CACACA_site3927] | 10.7 ± 0.39 |
| GTATCAAAAGAATACACACACACATACAGATATATA [CACACA_site5975] | 10.1 ± 0.16 |
| TGATATTATATATATACACACATGTATGTATTTATA [CACACA_site4874] | 9.98 ± 0.34 |
| TTTATTATTTTAACGTGTACAAGGTATATAATATTC [XGTACX_site5241] | 11.3 ± 0.8 |
| TAGGTAAATGCAAATTGGTTTAAATCAAAATATAAA [XGTACX_negctrl_site250] | 9.89 ± 0.071 |
| ATAAACAAACATAAATCTGATTTTAATTTTTTTAAG [CACACA_negctrl_site313] | 9.545 ± 0.064 |
| TAGGGTAGTTATAATTGTACTTTTCTCCAAAAAAAA [XGTACX_site7321] | 11.3 ± 0.81 |
| TTTTTGTTTTTTTGTTTATCGTTCGTGACTACATGA [TGCATGCA_negctrl_site124] | 10.2 ± 0.39 |
| GAAATCTAAATAGAAACACACATATATATATATATA [CACACA_site3863] | 9.8 ± 0.29 |
| TTATATTTTCTCCGCGTGCACATATGTATACTATAC | 10.7 ± 0.26 |
| TACATATTTTTATATACACACAATAATTACTATAAA [CACACA_site6879] | 10 ± 0.16 |
| AATTTTAATTATATCACACATAATATATACCAAAAA [CACACA_site6011] | 10.2 ± 0.36 |

— the supplement of paper PMC11417369
